Whole data set: some 110,000 compounds, median “z-score” near -0.1, cut for the highest 2% near 2. Some of the results follow.
The compounds below were run against Metabotropic glutamate receptor 8 (Rattus norvegicus) (UniProt P70579) (assay: mGluR8 Gi/Go-coupled signaling modulation – cell-based, rat, thallium flux, HTS, primary screen (AID 488969)). Details: HEK293 rat mGluR8, GIRK (G protein-gated inwardly rectifying potassium channel) thallium flux, FluoZin2; at 10 µM; stronger effect = higher value; submaximal glutamate (EC20) added with thallium.
UniProt P70579, sequence (P70579 whole entry, looked up): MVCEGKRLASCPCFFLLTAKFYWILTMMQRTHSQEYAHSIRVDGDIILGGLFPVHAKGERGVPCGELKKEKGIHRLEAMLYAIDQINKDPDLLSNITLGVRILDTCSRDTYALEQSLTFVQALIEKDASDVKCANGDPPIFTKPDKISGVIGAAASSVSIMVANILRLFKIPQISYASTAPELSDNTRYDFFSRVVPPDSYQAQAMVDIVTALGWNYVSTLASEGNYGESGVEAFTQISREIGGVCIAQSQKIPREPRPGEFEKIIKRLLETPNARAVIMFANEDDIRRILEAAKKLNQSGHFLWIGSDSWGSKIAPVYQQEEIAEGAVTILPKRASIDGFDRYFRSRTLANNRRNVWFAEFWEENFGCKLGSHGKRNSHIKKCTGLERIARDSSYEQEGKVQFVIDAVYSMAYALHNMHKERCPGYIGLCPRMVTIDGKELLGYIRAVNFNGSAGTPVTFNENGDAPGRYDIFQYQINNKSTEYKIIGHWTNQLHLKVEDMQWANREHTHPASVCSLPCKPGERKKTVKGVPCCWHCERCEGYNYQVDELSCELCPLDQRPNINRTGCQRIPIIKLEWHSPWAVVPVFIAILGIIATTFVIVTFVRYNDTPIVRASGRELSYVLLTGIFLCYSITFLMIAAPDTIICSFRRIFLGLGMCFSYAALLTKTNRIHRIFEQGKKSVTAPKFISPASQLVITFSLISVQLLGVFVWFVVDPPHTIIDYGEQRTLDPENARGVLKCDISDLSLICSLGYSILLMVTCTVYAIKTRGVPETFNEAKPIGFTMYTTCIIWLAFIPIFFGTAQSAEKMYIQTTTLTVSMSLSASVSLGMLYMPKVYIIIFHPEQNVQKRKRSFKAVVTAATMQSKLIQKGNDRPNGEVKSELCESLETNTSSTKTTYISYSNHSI
With `N#C/C(=C\Nc1ccc2c(c1)OCCO2)c1nc(-c2ccccc2)cs1` the z-score was 0.0237.
Compound `CCc1ccc(CNCCSc2nnnn2C)cc1` has a z-score of 0.41.
`COc1ccc(Cc2nnc(SCC(=O)NCc3ccco3)o2)cc1` gave a z-score of -0.0075.
Work on `CC1=C(C)CC(C(=O)NNC(=O)c2ccccc2O)C(C(=O)O)C1` (stereo not given) yielded a z-score of -0.196.
Compound `Brc1ccc2[nH]c3c(N4CCc5ccccc5C4)ncnc3c2c1` has a z-score of -0.00372.
`Cc1nc(/N=C(\N)NC(=O)N2c3ccccc3Sc3ccccc32)nc2ccccc12` showed a z-score of -0.0514.
`Cc1ccc(NC(=O)CN(C)C(=O)CSc2nncn2C)cc1` was tested, and the z-score was -0.0873.
`CSc1nc(C)nc2c1c(=O)n(C)c(=O)n2C` was tested, and the z-score was 0.179.
For `OCCN1CCN(CC#CCn2c3ccccc3c3ccccc32)CC1`, the z-score was -0.418.
`COc1ccc(C/C(C)=N/NC(=S)Nc2ccc(C(C)C)cc2)cc1` showed a z-score of 0.256.
In the case of `O=C(Cn1cnc2c(nnn2Cc2ccc(F)cc2)c1=O)NC1CCCC1`, the z-score is reported as 1.14.
Compound `O=c1cc(-c2ccccc2)nc2nc(COc3ccccc3)[nH]n12` has a z-score of -0.82.
Compound `Cc1cc(Cl)ccc1OC(C)C(=O)Nc1ccc([N+](=O)[O-])cn1` (stereo not given) has a z-score of 2.07.
`CC(=O)CCS(=O)(=O)c1ccc(Oc2ccc(S(=O)(=O)CCC(C)=O)cc2)cc1` gave a z-score of 1.21.
`O=C(/C=C/c1cccc(Cl)c1)c1nc2ccccc2[nH]1` showed a z-score of -0.227.
`CCOc1cccc(NC(=O)C2CC(=O)NC(=Nc3ccccc3)S2)c1` (stereo not given) gave a z-score of 0.244.
In the case of `CCCSc1nnc2[nH]c(=O)cc(N)n12`, the z-score is reported as -0.106.
`CCOC(=O)c1[nH]c2ccc(OC)cc2c1NC(=O)/C=C/c1ccc2c(c1)OCO2` showed a z-score of -0.205.
`Cc1ccc(C)n1-c1ccc(NC(=O)c2ccccc2)cc1` was tested, and the z-score was -0.116.
Compound `CC(=O)NCc1nc2ccccc2n1C(C)C` has a z-score of -0.16.
`O=C(CSCc1cccc(Cl)c1)N/N=C/c1ccc(OCC(=O)N2CCCCC2)cc1` showed a z-score of -0.284.
`O=C(CN1C(=O)c2ccccc2S1(=O)=O)N1CCOCC1` was tested, and the z-score was 0.229.
`COC(=O)c1cc(=O)n(Cc2ccc3c(c2)OCO3)c(=Nc2ccc(F)c(Cl)c2)s1` showed a z-score of -0.162.
Compound `O=C1CCCN1c1ccc(S(=O)(=O)N2CCN(c3ccccn3)CC2)cc1` has a z-score of -0.208.
Compound `Cc1ccc(S(=O)(=O)NC(C(=O)Oc2ccc3ccc(=O)oc3c2)c2ccccc2)cc1` (stereo not given) has a z-score of -0.316.
`O=C(NCc1ccco1)C(NS(=O)(=O)c1cccc2nsnc12)c1ccccc1` (stereo not given) showed a z-score of 0.634.
`Cc1ccc(S(=O)(=O)N2CCN(c3ccc4nnc(-c5ccccc5)n4n3)CC2)cc1` was tested, and the z-score was -0.183.
Compound `Cc1ccc(NC(=S)NCCO)c(C)c1` has a z-score of -0.044.
In the case of `Cc1nc2ccccc2nc1CSc1nnc(N)s1`, the z-score is reported as 0.0642.
For `Cc1cccc(C)c1NC(=O)C(NC=O)c1ccccc1` (stereo not given), the z-score was -0.0702.
`CC1CCCN(C(=O)C(C)Sc2nc(-c3ccccc3)cc(C(F)(F)F)n2)C1` (stereo not given) gave a z-score of -0.5.
In the case of `CN1CCc2c(sc3c2C(=O)NC(c2cccs2)N3)C1` (stereo not given), the z-score is reported as -0.402.
Work on `Cc1ccc(/C=C2/C(=O)N(c3ccccc3)C(=S)N2C)o1` yielded a z-score of -0.3.
`CCn1nnnc1SCC(=O)c1cccc(OC)c1` was tested, and the z-score was 0.012.
For `Cc1cc(C)nc(SCC(=O)Nc2ccc(S(=O)(=O)Nc3onc(C)c3C)cc2)n1`, the z-score was -0.02.
Compound `COc1ccc(OCc2nn3c(Cn4cnc5ccccc54)nnc3s2)cc1` has a z-score of 0.0418.
`COc1c([N+](=O)[O-])c(=O)n(-c2ccccc2)c2ccccc12` was tested, and the z-score was 0.0283.
`CC(=O)C1C(c2cccc([N+](=O)[O-])c2)C2C(C)=NN=C2CC1(C)O` (stereo not given) was tested, and the z-score was -0.0665.
Compound `Cc1ccc(-c2ccc(/C=C(\C#N)C(=O)Nc3cc(C)nn3-c3ccccc3)o2)cc1` has a z-score of -1.77.
In the case of `O=C(CSc1ncnc2c1cnn2Cc1ccccc1)Nc1ccc2c(c1)OCCO2`, the z-score is reported as 0.549.
Work on `O=C(NCc1ccccc1C(F)(F)F)C12CN(Cc3ccccc3)CC1C(c1ccc([N+](=O)[O-])cc1)=NO2` (stereo not given) yielded a z-score of -0.395.
For `CC(Oc1ccc(Cl)cc1Cl)c1nc(-c2ccc(NC(=O)c3ccccn3)cc2)no1` (stereo not given), the z-score was -0.152.
For `Cc1c(Br)c([N+](=O)[O-])nn1CC(=O)Nc1sc2c(c1C(=O)OC(C)C)CCCC2`, the z-score was -0.096.
`Cc1csc2ncc(C(=O)N3CCc4ccccc43)c(=O)n12` was tested, and the z-score was -0.249.
`Cc1[nH]c2ccccc2c1C(=O)CSC(=S)N1CCCCC1` was tested, and the z-score was -0.247.
`CCSc1ncc(C#N)c(N)n1` showed a z-score of 0.108.
In the case of `COc1cc(Nc2nc(SCC#N)nc3ccccc23)cc(OC)c1OC`, the z-score is reported as 2.31.
`CCN1CCc2c(C#N)c(NCc3ccccc3)nc(NCCO)c2C1` showed a z-score of -0.101.
Work on `COc1ccc2nc(NC(=O)CSc3nnc(C)s3)sc2c1` yielded a z-score of -0.0478.
`COc1cccc(NC(=O)c2cc(-c3cccnc3)nc3c(Cl)cccc23)c1` was tested, and the z-score was -0.244.
In the case of `C=CCNC(=O)C1CCN(S(=O)(=O)c2ccc(Br)cc2)CC1`, the z-score is reported as 0.689.
`Cc1nn(C(=O)c2nn(C)cc2Cl)c(C)c1Br` gave a z-score of 0.0765.
For `CCOc1ccccc1OCCCCOc1ccccc1F`, the z-score was 0.0236.
In the case of `CCCOC(=O)c1ccc(NC(=O)c2ccoc2C)cc1`, the z-score is reported as 2.24.
In the case of `CC(=NCCCn1ccnc1)C1=C(O)c2ccccc2C1=O`, the z-score is reported as -0.322.

From PubChem BioAssay AID488969 (Vanderbilt High Throughput Screening Facility, 2010)
